Experimental data: PubChem BioAssay AID485364 (National Center for Advancing Translational Sciences (NCATS), 2010)
The campaign covered roughly 360,000 compounds. About 11,000 (3.1%) were called active. The inconclusive results got no clear call from the source; some entries with a clear call stand among them for comparison. The call rests on the fitted dose curve; in most records, active means well fitted inhibition curve with a large enough effect; inconclusive means small, poorly fitted or top-dose-only effect; inactive means no such curve, though single readings can be large or run the other way. No potency is given beside an inconclusive call; the fits are too rough.

Biological target: Schistosoma mansoni thioredoxin glutathione reductase (TGR) (UniProt Q962Y6)
Test: qHTS Assay for the Inhibitors of Schistosoma Mansoni Peroxiredoxins; further: nearly all actives have a fitted effect of over 60% in size
Details: purified TGR, DTNB reduction, TNB absorbance 405 nm; series mostly up to 114 µM
How it was run: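 Kinetic colorimetric format: TGR-catalysed, NADPH-driven DTNB reduction monitored via TNB absorbance. Enzyme dispensed at 20 nM; compound exposure 15 min at room temperature before reaction start.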
Potency means the concentration at half of the fitted maximal effect; tags describe the fitted curve by direction and shape.

Compound	Potency
c1cncc(-c2nc3ccccc3s2)c1	inactive
COc1ccc(CNc2cccc3[nH]c(C(F)(F)F)nc23)cc1	active: 31.6 µM
CCCCN1C(=O)CC(Nc2ccc(CC)cc2)C1=O (stereo not given)	inconclusive [inhibitor, partial curve]
Cc1ccc(-n2c(O)c(/C=C3/C(c4ccccc4)=Nc4ccccc43)c(=O)[nH]c2=O)cc1	inconclusive [inhibitor, full curve, poor fit]
Cc1cc(OC(=O)c2ccccc2)n(CCC#N)n1	inconclusive [inhibitor, partial curve]
Cc1ccc2[nH]c3c(c2c1)CN(C(=O)CN1CCN(c2cccc(C)c2C)CC1)CC3	inconclusive [inhibitor, partial curve]
COc1ccc(C2=NN(C(=O)c3ccccc3)C(c3cccc([N+](=O)[O-])c3)C2)cc1 (stereo not given)	inactive
Cc1cccc(Cn2cc(C(=O)c3ccccc3)c(=O)c3cc4c(cc32)OCO4)c1	inactive
COc1ccc(N=Cc2c(O)n(-c3cccc(C)n3)c(=O)c3ccccc23)c(OC)c1	inactive
COc1ccccc1-c1cc(C(=O)NCc2ccc(F)cc2)no1	inactive
COc1ccc(NC(=O)CSc2oc(-c3cccs3)nc2S(=O)(=O)c2ccc(Br)cc2)c(OC)c1	inconclusive [inhibitor, partial curve]
Nc1cccc(O)c1	active: 7.08 µM
CCn1cc(C(=O)O)c(=O)c2cc(F)c(N3CCN(C(=S)NC(=O)c4ccc(F)c(F)c4)CC3)cc21	inactive
C=CCOc1ccc(/C(O)=C2\C(=O)C(=O)N(CCN(C)C)C2c2cccs2)cc1 (stereo not given)	inconclusive [inhibitor, full curve, poor fit]
O=C1c2cccc3c([N+](=O)[O-])ccc(c23)C(=O)N1CC1CCCO1 (stereo not given)	inconclusive [inhibitor, full curve]
COc1ccc(C(=O)c2oc3ccccc3c2NC(=O)c2ccc(F)cc2)cc1	inconclusive [inhibitor, single point]
O=[N+]([O-])c1ccc(N=Cc2ccc(Br)c([N+](=O)[O-])c2)cc1	active: 31.6 µM
CCOC(=O)c1ccc(NC(=O)CSc2ccc(-c3sc(C)nc3C)nn2)cc1	inconclusive [inhibitor, partial curve]
Nc1ccc(N2CCOCC2)c(Cl)c1	inconclusive [inhibitor, single point]
CCOc1ccc(C(=O)c2cn(Cc3ccccc3OC)c3cc4c(cc3c2=O)OCCO4)cc1	inconclusive [inhibitor, single point]
CCN(N=Nc1cccc([N+](=O)[O-])c1)c1cccc([N+](=O)[O-])c1	inactive
O=C(O)COc1ccccc1/C=C1\C(=O)NC(=O)N(CCC2=CCCCC2)C1=O	inconclusive [inhibitor, full curve]
Cc1ccc(S(=O)(=O)CCSc2n[nH]c(=O)n2-c2ccc3c(c2)OCCO3)cc1	inconclusive [inhibitor, partial curve]
CCOC(=O)c1cc(-c2ccccc2)n(CCCC(=O)Nc2ccc(C)c(C)c2)c1C	inactive

Compound	Potency
Cc1ccccc1CNC(=O)C1CCCN(c2nnc(-n3c(C)ccc3C)s2)C1 (stereo not given)	inconclusive [inhibitor, partial curve, poor fit]
N#C/C(=C/c1ccc(N2CCOCC2)o1)C(=O)N1CCOCC1	inconclusive [inhibitor, partial curve]
C#CCOCCOCCOCCNc1nc(N2CCN(C(=O)[C@H]([C@@H](C)CC)n3cc([C@@H](N)CC(C)C)nn3)CC2)nc(N2CCN(C(=O)[C@H](Cc3cc4ccccc4[nH]3)n3cc([C@@H](N)CC(C)C)nn3)CC2)n1	inconclusive [inhibitor, partial curve]
Cc1cc(C)c2c(n1)nn1c(C)c(CCC(=O)NCc3ccco3)c(C)nc21	inconclusive [inhibitor, partial curve]
CCOC(=O)c1cnc(-c2ccc(C(F)(F)F)cn2)[nH]c1=O	inconclusive [inhibitor, partial curve]
C=CCOC(=O)C(=O)/C=C/c1coc2ccccc2c1=O	inconclusive [inhibitor, full curve]
O=C1CCC/C1=C/Nc1ccc2c(c1)OCO2	inconclusive [inhibitor, partial curve]
O=C(Cc1ccccc1)Nc1cc(-c2nc3cc(Cl)ccc3o2)ccc1Cl	inactive
Cc1ccc(C)c(S(=O)(=O)/N=C2\C=C(NS(=O)(=O)c3ccccc3)C(=O)c3ccccc32)c1	inconclusive [inhibitor, partial curve]
Cc1nc2ccccc2c(=O)n1NC(=O)c1ccc(F)cc1Cl	inactive
Cc1cccc(NC(=O)CSc2ccc(-c3ccco3)nn2)c1	active: 20 µM
COC(=O)[C@@H]1Cc2c([nH]c3ccccc23)C(C)(C)N1C(=O)CCl	active: 31.6 µM
O=C(O)c1ccccc1SC1CC(=O)N(C2CCCCC2)C1=O (stereo not given)	active: 3.98 µM
O=C(COc1cccc2cccnc12)NCC(F)(F)F	inactive
Cc1ccc(/C=N/NC(=S)NCCc2ccccc2)s1	inconclusive [inhibitor, single point]
CC(C)C(OC(=O)c1nsc(Cl)c1Cl)C(=O)NCc1ccccc1 (stereo not given)	inactive
COCCCNC(=O)c1ccc(CS(=O)(=O)c2ccc(OC)cc2)o1	inconclusive [inhibitor, partial curve]
O=C(NCC(c1cccs1)S(=O)(=O)c1cccs1)c1ccc(C(F)(F)F)cc1 (stereo not given)	inconclusive [inhibitor, partial curve]
Cc1nn(-c2ccc(F)cc2)c(Cl)c1/C=C(\CC(=O)O)c1nc2ccccc2s1	inconclusive [inhibitor, partial curve]
C/C=C\C(=O)Nc1cccc(C2=NOC3(C2)C[C@@H](C(N)=O)N(C(=O)COc2ccc(Cl)cc2)C3)c1 (stereo not given in full)	inactive
Cc1ccc2nc3cc([N+](=O)[O-])cc([N+](=O)[O-])c3cc2c1	active: 2.51 µM
COc1cccc(OCCCN2CCCCC2)c1	inactive
COc1ccc(-c2c(=O)n(OC)c3ccccc3[n+]2[O-])cc1OC	inconclusive [inhibitor, partial curve]
O=C(/C=C/NNC(=O)c1ccc(Cl)cc1)c1ccccc1	inconclusive [inhibitor, partial curve]

Compound	Potency
COc1cc(/C=C/c2nc(C#N)c(NC(C)c3ccccc3)o2)cc(OC)c1OC (stereo not given)	inactive
O=C1c2ccccc2NC(c2ccc(-c3cccc(Cl)c3)o2)N1O (stereo not given)	inconclusive [inhibitor, partial curve]
O=C(O)CCc1ccc(-c2ccccc2)n1-c1cccc(Br)c1	active: 15.8 µM
O=C(CCc1ccc(Oc2cc([N+](=O)[O-])cc([N+](=O)[O-])c2)cc1)N1CCCCCC1	inactive
Cc1nc2sc3c(c2c(=O)o1)CC(C)(C)OC3	inactive
COCCNC(=O)CN(C(=O)CCC(=O)Nc1ccccn1)c1ccc(C)cc1C	inactive
C=CCC1(CC=C)CCCN1C(=O)c1cc(COc2ccc(F)c(F)c2)on1	inconclusive [inhibitor, full curve, poor fit]
CCOC(=O)c1ccc(N2C(=O)C3ON(c4ccccc4)C(c4ccco4)C3C2=O)cc1 (stereo not given)	inconclusive [inhibitor, partial curve]
CC(=O)c1ccc(S(=O)(=O)N2CCCCC2C(=O)O)cc1 (stereo not given)	inconclusive [inhibitor, full curve]
O=C(/C=C/c1ccco1)Nc1ccc(Cl)c(-c2nc3cc(Cl)ccc3o2)c1	inconclusive [inhibitor, single point]
CCCCNC(=S)Nc1cccc(C(C)=O)c1	inconclusive [inhibitor, partial curve, poor fit]
Cc1cc(C(F)F)nn1CC(=O)NC1C(=O)N2C(C(=O)O)=C(CSc3nnnn3C)CSC12 (stereo not given)	active: 14.1 µM
O=[N+]([O-])c1c(NCc2ccccc2)cc(N2CCc3ccccc3C2)c2nonc12	inconclusive [inhibitor, partial curve]
O=C(C1=C(O)C(=O)N(c2nc3ccc(Cl)cc3s2)C1c1ccco1)c1ccco1 (stereo not given)	inconclusive [inhibitor, partial curve]
Cc1ccc(N(C(=O)c2cccc(C)c2)S(=O)(=O)c2ccc(Cl)cc2)cc1	inactive
COc1ccc(NC(=O)/C(Cl)=C(/Cl)S(=O)Cc2ccccc2)cn1 (stereo not given)	active: 0.316 µM
Cc1ccc(N2C(=O)C3C4C=CC(CNC(=S)Nc5ccc(F)cc5)(O4)C3C2=O)cc1 (stereo not given)	active: 3.16 µM
Clc1ccc(-n2nnc(-c3cccnc3Cl)n2)cn1	inconclusive [inhibitor, single point]
COc1ccc(Nc2nc(-c3cccnc3)nc3ccccc23)cn1	inconclusive [inhibitor, partial curve, poor fit]
COc1ccc(Cl)cc1C(=O)Nc1ccncc1	inactive
Cc1c(C(=O)Nc2ccc(Cl)cc2)c2ccccn2c1C(=O)c1ccccc1	inconclusive [inhibitor, full curve, poor fit]
Cc1ccc(C2NC(=O)c3c(sc(C)c3C)N2)c(O)c1 (stereo not given)	active: 25.1 µM
